Measured values taken from the supplement of paper PMC11876631.
Substitutions are numbered along the chain they refer to. Names and notes keep the numbering of the source. ± gives the standard deviation of the averaged measurements. Laboratory Escherichia coli strains with one amino-acid change in an essential protein, pooled on minimal glucose agar with carbenicillin or gentamicin at twice the control MIC (plus kanamycin and chloramphenicol for the plasmids), 48 h. Fold change of barcode share against drug-free plates; higher = less susceptible. Active = above 20 in both replicates (the paper's putatively resistant). '<' = one read or none on drug, '>' = one read or none on a drug-free plate. Shares are relative, so most strains fall below 1 when a few take over. Listed are strains with at least 15 reads on both drug-free plates, and hits; most hits rest on fewer reference reads. Replicate rank correlation about 0.5. Edits are read from barcodes.

B1: purD M200P (protein)
chain: MKVLVIGNGGREHALAWKAAQSPLVETVFVAPGNAGTALEPALQNVAIGVTDIPALLDFAQNEKIDLTIVGPEAPLVKGVVDTFRAAGLKIFGPTAGAAQLEGSKAFTKDFLARHKIPTAEYQNFTEVEPALAYLREKGAPIVIKADGLAAGKGVIVAMTLEEAEAAVHDMLAGNAFGDAGHRIVIEEFLDGEEASFIVPVDGEHVLPMATSQDHKRVGDKDTGPNTGGMGAYSPAPVVTDDVHQRTMERIIWPTVKGMAAEGNTYTGFLYAGLMIDKQGNPKVIEFNCRFGDPETQPIMLRMKSDLVELCLAACESKLDEKTSEWDERASLGVVMAAGGYPGDYRTGDVIHGLPLEEVAGGKVFHAGTKLADDEQVVTNGGRVLCVTALGHTVAEAQKRAYALMTDIHWDDCFCRKDIGWRAIEREQN
B2: purD V256A (protein)
chain: B1 chain with P200M, V256A
B3: purD V256W (protein)
chain: B1 chain with P200M, V256W
B4: purD V256Q (protein)
chain: B1 chain with P200M, V256Q
B5: purD V256D (protein)
chain: B1 chain with P200M, V256D
B6: purE V13A (protein)
chain: MSSRNNPARVAIAMGSKSDWATMQFAAEIFEILNVPHHVEVVSAHRTPDKLFSFAESAEENGYQVIIAGAGGAAHLPGMIAAKTLVPVLGVPVQSAALSGVDSLYSIVQMPRGIPVGTLAIGKAGAANAALLAAQILATHDKELHQRLNDWRKAQTDEVLENPDPRGAA
B7: purE V42A (protein)
chain: B6 chain with A13V, V42A
B8: purE V91A (protein)
chain: B6 chain with A13V, V91A
B9: accA I115A (protein)
chain: MSLNFLDFEQPIAELEAKIDSLTAVSRQDEKLDINIDEEVHRLREKSVELTRKIFADLGAWQIAQLARHPQRPYTLDYVRLAFDEFDELAGDRAYADDKAIVGGIARLDGRPVMAIGHQKGRETKEKIRRNFGMPAPEGYRKALRLMQMAERFKMPIITFIDTPGAYPGVGAEERGQSEAIARNLREMSRLGVPVVCTVIGEGGSGGALAIGVGDKVNMLQYSTYSVISPEGCASILWKSADKAPLAAEAMGIIAPRLKELKLIDSIIPEPLGGAHRNPEAMAASLKAQLLADLADLDVLSTEDLKNRRYQRLMSYGYA
B10: purE V91W (protein)
chain: B6 chain with A13V, V91W
B11: purE V91Q (protein)
chain: B6 chain with A13V, V91Q
B12: purE V91D (protein)
chain: B6 chain with A13V, V91D
B13: purE V91P (protein)
chain: B6 chain with A13V, V91P
B14: purE I29A (protein)
chain: B6 chain with A13V, I29A
B15: purE I29Q (protein)
chain: B6 chain with A13V, I29Q
B16: purE I32A (protein)
chain: B6 chain with A13V, I32A

molecular target: Escherichia coli (laboratory strain); test: barcode share on antibiotic plates over drug-free plates; higher = less susceptible; conditions: antibiotic: carbenicillin; 2× MIC (3.1 µg/mL)
Description: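 A pool of E. coli strains, each edited to carry one amino-acid change in an essential protein, was grown for 48 h on minimal glucose agar with or without antibiotic; strain barcodes were sequenced; mean of two replicates.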

Protein | fold change of barcode share
B1 | > 45.2 [active]
B2 | 0.714 ± 0.014
B3 | 30 [active]
B4 | 1.03 ± 0.22
B5 | 12.4 ± 3
B6 | 0.582 ± 0.063
B7 | 0.4583 ± 0.0026
B8 | 0.362 ± 0.032
B9 | 0.354 ± 0.049
B10 | 0.953 ± 0.75
B11 | 0.477 ± 0.17
B12 | 0.462 ± 0.33
B13 | 0.418 ± 0.094
B14 | 0.622 ± 0.12
B15 | 0.233 ± 0.056
B16 | 0.288 ± 0.12

same assay, conditions: antibiotic: gentamicin; 2× MIC (MIC 0.45 µg/mL)

Protein | fold change of barcode share
B2 | 0.124 ± 0.17
B3 | 0.0376 ± 0.00058
B4 | 0.0117 ± 0.0023
B5 | < 0.0108
B6 | < 0.011
B7 | 0.00568 ± 0.0039
B8 | < 0.00703
B9 | 0.00998 ± 0.0084
B10 | < 0.00639
B11 | < 0.00739
B12 | 0.00907 ± 0.0072
B13 | < 0.0052
B15 | < 0.00556
B16 | < 0.013
